Hit rate of the full screen: of about 310,000 compounds, about 14,000 (4.5%) showed an effect of 50% or more. The effect is printed as a negative number. The list shows a part of the results.
Target: human ether-à-go-go-related gene (hERG) potassium channel (human, UniProt Q12809)
Assay: primary screen, population patch clamp on CHO cells stably expressing hERG
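Note: peak tail current of the secondary pulse compared with the same well before compound.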

human ether-à-go-go-related gene (hERG) potassium channel, sequence (Q12809 whole entry, looked up): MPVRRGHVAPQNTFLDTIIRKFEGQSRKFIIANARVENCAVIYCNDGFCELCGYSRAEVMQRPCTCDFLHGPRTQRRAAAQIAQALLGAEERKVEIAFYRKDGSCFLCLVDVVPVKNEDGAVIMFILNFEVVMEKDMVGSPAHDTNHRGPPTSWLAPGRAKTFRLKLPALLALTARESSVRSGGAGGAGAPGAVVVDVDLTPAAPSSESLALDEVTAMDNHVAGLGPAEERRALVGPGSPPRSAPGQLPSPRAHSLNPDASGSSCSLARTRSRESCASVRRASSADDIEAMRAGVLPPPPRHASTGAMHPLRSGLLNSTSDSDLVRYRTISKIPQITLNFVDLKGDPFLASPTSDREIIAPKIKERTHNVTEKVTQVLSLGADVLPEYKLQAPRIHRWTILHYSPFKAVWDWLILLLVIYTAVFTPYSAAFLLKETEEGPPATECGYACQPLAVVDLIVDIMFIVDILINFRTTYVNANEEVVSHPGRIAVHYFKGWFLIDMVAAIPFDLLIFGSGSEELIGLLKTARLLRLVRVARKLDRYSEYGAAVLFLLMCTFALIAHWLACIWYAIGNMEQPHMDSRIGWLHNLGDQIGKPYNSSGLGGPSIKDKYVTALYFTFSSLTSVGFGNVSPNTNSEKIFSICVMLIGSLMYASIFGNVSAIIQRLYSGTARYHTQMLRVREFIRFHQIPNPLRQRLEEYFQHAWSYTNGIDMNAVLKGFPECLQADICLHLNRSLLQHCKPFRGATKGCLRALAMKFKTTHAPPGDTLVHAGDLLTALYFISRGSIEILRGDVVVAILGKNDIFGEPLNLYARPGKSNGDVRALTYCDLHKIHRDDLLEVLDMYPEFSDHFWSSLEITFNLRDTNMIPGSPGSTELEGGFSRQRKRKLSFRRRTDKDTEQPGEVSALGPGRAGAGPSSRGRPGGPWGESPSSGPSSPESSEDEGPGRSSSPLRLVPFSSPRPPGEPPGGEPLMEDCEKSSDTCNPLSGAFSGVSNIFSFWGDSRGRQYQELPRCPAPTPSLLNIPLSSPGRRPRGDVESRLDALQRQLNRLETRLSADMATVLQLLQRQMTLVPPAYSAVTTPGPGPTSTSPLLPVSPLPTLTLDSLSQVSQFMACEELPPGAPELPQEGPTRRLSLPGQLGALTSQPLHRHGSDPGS

| SMILES | hERG current change (%, negative = inhibition) at 10uM |
| --- | --- |
| O=C(O)c1ccc(C2(c3ccc(C(=O)O)cc3)OC(=O)c3ccccc32)cc1 | -8.81% |
| O=C(NCCc1ccccc1)c1ccccc1NC(=O)C1CC=CCC1C(=O)O (stereo not shown) | 26.4% |
| CC1(C)Cc2c(c(-c3ccccc3)nc3sc4c(=O)[nH]c(=S)[nH]c4c23)CO1 | -19.1% |
| C/C(=N\NC(=O)c1ccc2c(c1)OCO2)c1ccc(C(=O)O)s1 | 15.2% |
| Cc1nn2c3c(cnc2c1-c1ccccc1)C(=O)CC(c1ccco1)C3 (stereo not shown) | -3.37% |
| CCOc1ccc(Nc2nnc(Cc3ccc(OC)cc3)c(=O)[nH]2)cc1 | 19.4% |
| COC(=O)C1=C(C)N=C2SC(C)C(=O)N2C1c1cccs1 (stereo not shown) | 7.16% |
| CCc1ccc(NC(=O)Cn2nnc(C(=O)NCc3ccc4c(c3)OCO4)c2N)cc1 | -21.6% |
| CCC(=O)N1CCc2cc(S(=O)(=O)CCC(=O)Nc3c(C)n(C)n(-c4ccccc4)c3=O)ccc21 | 0.301% |
| Cc1cccc(C)c1OCC(=O)Nc1oc(-c2ccccc2)c(-c2ccccc2)c1C#N | 15.4% |
| CC(C)C(=O)N1CCN(c2nc(-c3ccccc3)c3c(c2C#N)CCCC3)CC1 | -26.6% |
| NC(=O)NC(=O)COC(=O)CCSc1ccccc1 | 31.6% |
| COc1ccccc1NC(=O)C(C)NC(c1ccccc1)c1ccccc1 (stereo not shown) | 17.5% |
| CC(C)(C)NC(=O)COc1ccc(-c2ccccc2)cc1 | -10.7% |
| CC(=O)CC(=O)Nc1ccc(Cl)cn1 | 13.7% |
| O=S(=O)(NCc1csc(-c2cccnc2)n1)c1ccc(Cl)s1 | -37.1% |
| COc1ccc2c(c1)c(C(=O)CN1CCN(Cc3ccccc3)CC1)c(C)n2C | -29.8% |
| CNC(=O)c1c(NC(=O)CS(=O)(=O)c2ccc(F)cc2)sc(C)c1C | -32.7% |
| Cc1cccnc1CNC(=O)C1CCC(=O)N(CCc2cccc(F)c2)C1 (stereo not shown) | -15.7% |
| CCOC(=O)C1=C(C)Nc2ccccc2N=C1NC(=O)C(CC)c1ccccc1 (stereo not shown) | -2.37% |
| Nc1c(C(=O)c2ccccc2)oc2ccc(Br)cc12 | 5.11% |
| Cc1cc(C(=O)NCCCn2ccnc2)sc1-c1ccccc1 | -10.3% |

| SMILES | hERG current change (%, negative = inhibition) at 10uM |
| --- | --- |
| COc1cc(C)ccc1OCCOCCOc1c(C)cc(C)cc1Br | 6.85% |
| O=[N+]([O-])[N-][n+]1cnn(Cc2ccc(Cl)cc2)c1 | 15.2% |
| COc1ccc(OCCN(C)CC(=O)Nc2ccccc2SC)cc1 | -1.97% |
| NS(=O)(=O)c1ccc(CNC(=O)CCCSc2ccccc2)cc1 | -0.688% |
| COc1ccc(Cc2nnc(NC(=O)CSc3ccccc3)s2)cc1OC | 9.85% |
| Cc1cc(Br)c2c(c1)C(O)(N1CCCCC1C)C(=O)N2 (stereo not shown) | -11.3% |
| CCc1nc(N2CCC(C)CC2)c2oc3ccccc3c2n1.Cl | 5.55% |
| Cc1ccc(S(=O)(=O)N(CC(=O)Nc2ccc(C)cc2C)C(=O)N2CCN(C)CC2)cc1 | 3.86% |
| Cn1c(=O)c2c(nc(SCc3cccnc3)n2Cc2ccc(F)cc2)n(C)c1=O | -30.7% |
| Cc1ccc(C(=O)Nc2cccc(O)c2)cc1S(=O)(=O)N1CCCCCC1 | 11.2% |
| CCN1C(=O)c2cccc3c(NC(=O)c4ccc5c(c4)OCCO5)ccc1c23 | -8.43% |
| Cc1ccc(/C=C(\C#N)C(=O)NCC2CCCO2)o1 (stereo not shown) | 16.9% |
| CCn1nc(C)c(CN2CCC(n3nccc3NC(=O)CCCc3ccccc3)CC2)c1C | -60.1% |
| COc1cc(CNc2cccc(C(=O)O)c2)cc(Br)c1OCC(=O)NC(C)(C)C | 2.52% |
| COc1ccccc1Oc1ccc(S(=O)(=O)N2CCN(C)CC2)cc1 | -1.98% |
| Cc1cc(C)cc(-n2c(SCC(=O)Nc3cccc(S(=O)(=O)NC4=NCCCCC4)c3)nc3ccccc3c2=O)c1 | -0.695% |
| CCC(=O)Nc1ccc(NC(=O)c2c(C)nc3ccccn23)cc1 | 17.1% |
| C/C(=N\NC(=O)CC1N=C(Cc2ccccc2)NNC1=O)c1ccccc1 (stereo not shown) | -5.72% |
| CC(=O)NCCC1CCCCN1C(=O)c1cc(COc2cc(C)ccc2C)on1 (stereo not shown) | -10.9% |
| CC(NC(=O)Cc1ccc(S(=O)(=O)N2CCOCC2)s1)c1ccc(Cl)c(Cl)c1 (stereo not shown) | -35.8% |
| NS(=O)(=O)c1ccc(CNC(=O)COc2ccc3c4c(c(=O)oc3c2)CCCC4)cc1 | 19.7% |
